Experimental findings from the RNAGym collection of RNA variant scans (doi:10.1073/pnas.2313332121) are described below.

Variants at the floor of the assay are shown more often than the library holds them.

First the molecules themselves.
B1: TPR 5TU (parent)
chain: GGAUCUUCUCGAUCUAACAAAAAAGACAAAUCUGCCACAAAGCUUGAGAGCAUCUUCGGAUGCAGAGGCGGCAGCCUUCGGUGGCGCGAUAGCGCCAACGUUCUCAACUAUGACACGCAAAACGCGUGCUCCGUUGAAUGGAGUUUAUCAUG

The variants in the data set derive from B1. Briefly: polymerase ribozyme fitness, log enrichment relative to wild type (log ratio); higher = more active; in vitro selection for triplet polymerase activity. The method in brief: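 The heterodimeric triplet polymerase ribozyme's subunits were each mutagenized into PCR-built libraries and transcribed. Every library was selected once, in triplicate, by annealing with a biotinylated primer, the partner subunit and triplets, incubating frozen at −7 °C, gel-excising extended constructs, capturing on streptavidin beads and running RT-PCR. Input and output libraries were Illumina-sequenced, with genotypes kept only at ≥10 input reads and ≥1 read per output. Fitness, from inverse-variance-weighted replicate averages, is the base-2 logarithm of genotype enrichment over wild-type enrichment.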
For A17C U61C C131G G143A, the “polymerase ribozyme fitness (log ratio)” value is at most -4.2.
To A17U G94A belongs -1.24; to A17G C57U G58U A60C C76G C108G G143C U151C, at most -4.2.
Next, A17G U53A U61A C85U A97U C108U: at most -4.2; A17C G48C U61G C96A C99U C116U U134G: at most -4.2.
Consider A17U A24U G50C C75G G83C A137C G141A, for which the “polymerase ribozyme fitness (log ratio)” value is at most -4.2.
Regarding A17G A24U A37C A41U G84A U101C C105A U111G C118U, the “polymerase ribozyme fitness (log ratio)” value was at most -4.2.
To A17C A89U belongs 0.471; to A17G A22C G48U G50C G65A A73U G94C C105U U146A, at most -4.2.
For A17G A30G C35U G50C A91U C105G C114A U144G, the “polymerase ribozyme fitness (log ratio)” value is at most -4.2.
Turning to A17U C79G C87U U144G, the “polymerase ribozyme fitness (log ratio)” value is at most -4.2.
With A17G G25A C32G G80U, the “polymerase ribozyme fitness (log ratio)” value is at most -4.2.
Next, A17G A40C A47C C54G G67A C85U G86C C95A U144A U145C: at most -4.2; A17G G100U: -4.01; A17C G34U C51U C57A G86A: -4.06.
Next, A17G C75U C95U: 0.0451.
Consider A17U A22C C57A G81C U127G G143C G152U, for which the “polymerase ribozyme fitness (log ratio)” value is at most -4.2.
Regarding A17C C36G G50A U77G A89G, the “polymerase ribozyme fitness (log ratio)” value is at most -4.2.
A17G A23U A24G A28C A29C C43U G62C G70A C85G G86A: the “polymerase ribozyme fitness (log ratio)” value was at most -4.2.
Next, A17U A47U U56A U78C A91U: at most -4.2.
As for A17U A64C C85U C87A U101G A107C G141A, the “polymerase ribozyme fitness (log ratio)” value was at most -4.2.
Consider A17U A20G C63A G92A A150U, for which the “polymerase ribozyme fitness (log ratio)” value was -2.12.
Next, A17C G46A G48C A91U U130G: at most -4.2; A17G C51U C54U G74A G88U C96G: at most -4.2; A17C C18A A39C C99A A119G: at most -4.2.
As for A17U A47C C51G U61A G83A, the “polymerase ribozyme fitness (log ratio)” value was at most -4.2.
As to A17C U44G G50A C87G C131A, the “polymerase ribozyme fitness (log ratio)” value is at most -4.2.
On to C18A A20C U82C A122C, for which the “polymerase ribozyme fitness (log ratio)” value was -1.71.
A17G A20U U45A U90G: the “polymerase ribozyme fitness (log ratio)” value was at most -4.2.
As for A17G A28U C32U A39U C57A C95A A110G U144C A147G A150C, the “polymerase ribozyme fitness (log ratio)” value is at most -4.2.
Turning to A17G C18G A64G C85A G100A A106U A119U, the “polymerase ribozyme fitness (log ratio)” value was at most -4.2.
To A17U G86U A115U C116U A122U U134C G140C belongs at most -4.2; to A17U G92U U101G U127G U148A, -4.01.
With A17G A26C C54U G58C C85A, the “polymerase ribozyme fitness (log ratio)” value is at most -4.2.
As to A17U A26G C72U A91G U101G C108U G140C G141U, the “polymerase ribozyme fitness (log ratio)” value is at most -4.2.
Turning to A17U U56A U82G C93A G128A, the “polymerase ribozyme fitness (log ratio)” value is at most -4.2.
To A17U C63U C79A U101G U146A belongs at most -4.2.
Next, A17G C27G C57G A60U U61A C69U G70A C79U A142C C149U: at most -4.2; A17G A20U C43A G46U U55A C57U C72A G94A: at most -4.2; A17G C43A C54U C93G: at most -4.2.
With A17G G67C G86A, the “polymerase ribozyme fitness (log ratio)” value was at most -4.2.
To A17U U44A G50A C87U A98G A142G belongs at most -4.2; to A17G C35U A41U A49C C95G A98U A110G A115C G117U A120G, at most -4.2; to A17U A60C C85A A106U G141A, at most -4.2.
To A17U A20C C57U A60U C93A G94U A122C G126U belongs at most -4.2.
On to A17G G48C G133A C149G, for which the “polymerase ribozyme fitness (log ratio)” value is at most -4.2.
Regarding A17U U61A C87G A115G, the “polymerase ribozyme fitness (log ratio)” value is at most -4.2.
A17U G58U G74C G86A: the “polymerase ribozyme fitness (log ratio)” value is at most -4.2.
Take A17U A28U C32U U111A U145G: the “polymerase ribozyme fitness (log ratio)” value was at most -4.2.
To A17C U31C A47C U55A G88C belongs at most -4.2.
A17U G25C C38U A49C G70A C96U U145A: the “polymerase ribozyme fitness (log ratio)” value was at most -4.2.
For A17G A52G A73C A97U, the “polymerase ribozyme fitness (log ratio)” value was at most -4.2.
Turning to A17G A30G C35U G50C C69A C75G C87G G143A U151G, the “polymerase ribozyme fitness (log ratio)” value is at most -4.2.
For A17G A23G G48C A91U U104A, the “polymerase ribozyme fitness (log ratio)” value is at most -4.2.
For the variant A17U A22G C36A G84U A120G, the “polymerase ribozyme fitness (log ratio)” value was at most -4.2.
Take C18A A20U G25U A29U U77G C85U A138G: the “polymerase ribozyme fitness (log ratio)” value was at most -4.2.
Consider A17U A40G G94C C132U, for which the “polymerase ribozyme fitness (log ratio)” value was -4.03.
As to A17G A89G, the “polymerase ribozyme fitness (log ratio)” value was -0.582.
Next, A17G A19U A21U A30C G50A G59A: at most -4.2; A17G A30G C36U G62C G94U A120U A121G: at most -4.2; A17U A22C A23G G25A G50C U55A C75A G80A C87U U90C C103A: at most -4.2.
For A17C C131G, the “polymerase ribozyme fitness (log ratio)” value was -3.09.
Take A17G U61A G71A G143A: the “polymerase ribozyme fitness (log ratio)” value is at most -4.2.
To A17G A22U A28U C51U A52U C93A U104G A106G U111G G133U G152A belongs at most -4.2; to A17U A39C C75U, at most -4.2; to A17G A60G C85G A89U, -2.31.
A17G A19U: the “polymerase ribozyme fitness (log ratio)” value worked out at 0.00969.
In the case of A17U A37U G83C A91C A98G G124U, the “polymerase ribozyme fitness (log ratio)” value is at most -4.2.
To A17U A98G belongs -0.0344; to A17C A40U U53A C76G C93U U146G, at most -4.2.
For A17G G59A G143C, the “polymerase ribozyme fitness (log ratio)” value is -1.26.
For the variant A17U A52C C57A C76G A91G C103G, the “polymerase ribozyme fitness (log ratio)” value was at most -4.2.
With A17C U53A G71C G83A A91U C93A C108U U127G, the “polymerase ribozyme fitness (log ratio)” value was at most -4.2.
For the variant A17U U53G C57G G88A C93G U134G U135G G140U, the “polymerase ribozyme fitness (log ratio)” value was at most -4.2.
With A17U A20U C32A G34A C99U, the “polymerase ribozyme fitness (log ratio)” value is at most -4.2.
Take A17U A49U A60G U61A A107C: the “polymerase ribozyme fitness (log ratio)” value was at most -4.2.
To A17C G58U G128A A138U belongs -4.13.
For the variant A17U A23C U44C A60C A66C C72A G84U G140C, the “polymerase ribozyme fitness (log ratio)” value was at most -4.2.
In the case of A17U A41C U56A U90A C93G A97U C123U G128U, the “polymerase ribozyme fitness (log ratio)” value is at most -4.2.
Take A17G A24C A41C G68A G94A U111A: the “polymerase ribozyme fitness (log ratio)” value was at most -4.2.
A17G U31C G46A C76U C96U A120G C125G: the “polymerase ribozyme fitness (log ratio)” value was at most -4.2.
Turning to A17G C35G G94C A119U U139G, the “polymerase ribozyme fitness (log ratio)” value was at most -4.2.
To A17C A47U G58A G83U G94A G126U belongs at most -4.2; to A17U G58C A91C C96G U148C, at most -4.2.
